In patent EP0302423A2, “1-Phenyl-3-(1-piperazinyl)-1h-indazoles, a process and intermediates for their preparation, and the use thereof as medicaments” (HOECHST-ROUSSEL PHARMACEUTICALS INCORPORATED, priority 1987, dated 1989):
At least one read-out could not be matched to a standard name with certainty.

tested on: mice; experiment: phenyl-p-benzoquinone writhing assay in mice (analgesia); format: in vivo; conditions: 20mg/kg

| SMILES | % inhibition of writhing at indicated screening dose, s.c. [% @ 20mg/kg*] |
| --- | --- |
| Cl.FC(F)(F)c1ccc(-n2nc(N3CCNCC3)c3ccccc32)cc1 [3-(1-Piperazinyl)-1-[4-(trifluoromethyl)phenyl]-1H-indazole hydrochloride] | 35 |
| CCOC(=O)N1CCN(c2nn(-c3ccccc3)c3ccccc23)CC1 [4-(1-Phenyl-1H-indazol-3-yl)-1-piperazine carboxylic acid ethyl ester] | 45 |
| N#CN1CCN(c2nn(-c3ccccc3)c3ccccc23)CC1 [4-(1-Phenyl-1H-indazol-3-yl)-1-piperazinecarbonitrile] | 65 |
| FC(F)(F)c1ccc(-n2nc(N3CCN(CC4CC4)CC3)c3ccccc32)cc1 [3-[4-(Cyclopropyl)methyl-1-piperazinyl]-1-[4-(trifluoromethyl)phenyl]-1H-indazole] | 58 |
| Cl.FC(F)(F)c1ccc(-n2nc(N3CCN(CCc4ccccc4)CC3)c3ccccc32)cc1 [3-[4-(2-Phenylethyl)-1-piperazinyl]-1-[4-(trifluoromethyl)phenyl]-1H-indazole hydrochloride] | 32 |
| Fc1ccc(-n2nc(N3CCNCC3)c3ccccc32)cc1 [1-(4-Fluorophenyl)-3-(1-piperazinyl)-1H-indazole] | 50 |
| CCOC(=O)N1CCN(c2nn(-c3ccc(F)cc3)c3ccccc23)CC1 [4-[1-(4-Fluorophenyl)-1H-indazol-3-yl]-1-piperazinecarboxylic acid ethyl ester] | 58 |
| OCCN1CCN(c2nn(-c3ccc(C(F)(F)F)cc3)c3ccccc23)CC1 [3-[4-(2-hydroxyethyl)-1-piperazinyl]-1-[4-(trifluoromethyl)phenyl]-1H-indazole] | 62 |
| CCOC(=O)N1CCN(c2nn(-c3ccc(C(F)(F)F)cc3)c3ccccc23)CC1 [4-[1-(4-(Trifluoromethyl)phenyl)-1H-indazol-3-yl]-1-piperazine carboxylic acid ethyl ester] | 33 |
| C=CCN1CCN(c2nn(-c3ccccc3)c3ccccc23)CC1.Cl [3-(4-Allyl-1-piperazinyl)-1-phenyl-1H-indazole hydrochloride] | 34 |
| CP(C)(=O)CN1CCN(c2nn(-c3ccccc3)c3ccccc23)CC1 [3-[4-(Dimethylphosphinylmethyl)-1-piperazinyl]-1-phenyl-1H-indazole] | 66 |
